# The supplement of paper PMC10338343
# ± gives the standard deviation. This is a selection; strong and weak results do not stand in their true shares.
# System: MIWI (PIWIL1) piRISC loaded with piRNA #1 (30 nt)
# Test: pre-steady-state target cleavage rate (min^-1); MIWI and MILI are mouse PIWI proteins and EfPiwi is from a freshwater sponge; tags in brackets are library labels; higher = faster piRNA-guided slicing of the target
# Settings: guide: piRNA #1 5'p-UGAGGUAGUAGGUUGUAUAGUAUCCAGAGG; auxiliary factor: 500 nM mouse GTSF1
# In short: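 The pre-steady-state cleavage rate was derived from a burst-and-steady-state fit of Cleave-'n-Seq data. For these assays, 1 nM active affinity-purified piRISC loaded with a single synthetic guide was mixed with […] a transcribed, DNA-blocked target RNA library in HEPES–potassium acetate buffer at 33 °C, with or without 500 nM GTSF1 partner protein, for 0–8 or 0–960 min. Sequencing counts of uncleaved targets were normalised to depth and to weakly complementary targets, and k3 was capped at 0.0001 min^-1 after three trials were pooled.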
# 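Note: 1 nM active piRISC with 0.1 nM target library at 33 °C single turnover.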
row,Sequence,pre-steady-state target cleavage rate
1,GGAGACCAUACUAUACAACCUACUAGCUCA,0.708 ± 0.058
2,GGAGACCUAACUAUACAAGCUACUACCUGA,0.434 ± 0.036
3,CCUCUGGAUACUAUACAACCUACUAGCACA,0.402 ± 0.069
4,GGAGUCGAUACUAUACAACCUACUAGCUCA,0.139 ± 0.029
5,GGAGACGAUAAUAUACAACCUACUACCUCA,1.53 ± 0.1
6,GCUCUGGAUACUAUACAUCCUACUACCACA,1.61 ± 0.1
7,GCUCUGCUAACUAUACAACCUACUACCUCA,1.68 ± 0.11
8,GGAGAGGUUACUAUACAACCUACUAGCUCA,0.00956 ± 0.0034
9,GGAGAGGAUACUAUACAAGGUACUACCUCA,0.0561 ± 0.0087
10,GGAGUGGAUACUAUACAAGCUACUACCACA,0.465 ± 0.027
11,GGAGACCAUACUAUACAACGAUCUACCUCA,< 0.0001
12,GGAGUGGAUAGUAUACUACCUACUACCUCA,0.516 ± 0.043
13,GCUCUGGAUAGUAAACAACCUACUACCUCA,0.764 ± 0.038
14,GGAGACCUUACUAUACAACCUACUACGAGA,0.361 ± 0.071
15,CCUCUGGAUACUAUACAACUUACUACCUCA,0.644 ± 0.026
16,GGAGUGGAUACUAUACAACCUACUAACUCA,0.0789 ± 0.011
17,GGUCUGGAUUCUAUACUACCUACUACCUCA,1.4 ± 0.12
18,GCUCUGGAUACUAAUACAACCUACUACCUCA,1.49 ± 0.09
19,GGACUGGUUACUAUAGAACCUACUACCUCA,1.24 ± 0.097
20,GGAGUGGAUACUAAUCAACCUACUACCUCA,1.2 ± 0.11

row,Sequence,pre-steady-state target cleavage rate
1,GGAGUGCAUACUAUACAACCUACAACCUCA,0.36 ± 0.031
2,GGAGACGAUAGUAUACAUCCUACUACCUCA,0.848 ± 0.058
3,GGACUGCAUACUAUACAACCUACAACCUCA,0.222 ± 0.028
4,GGAGACCAUACUAUACAACCUACUACCUUA,1.74 ± 0.13
5,GGUCUGCAUACUAUACAUCCUACUACCUCA,1.49 ± 0.086
6,GGUCUGGAUACUAUACAACCUAGUACCUGA,0.00324 ± 0.0027
7,GGAGACCUAUCUAUAACAACCUACUACCUCA,0.108 ± 0.02
8,GGUCUGGAAACUAUACAUCCUACUACCUCA,1.57 ± 0.087
9,GGAGACCUUACUAUACAUCCUACUACCACA,0.745 ± 0.05
10,GGACUGGAAACUAUACAACCAACUACCUCA,0.0617 ± 0.0089
11,GCUCUGGUAUACUAUACAACCUACUACCUCA,1.97 ± 0.099
12,GGAGACCUAACUAUACAACCUACUAACCUCA,0.82 ± 0.063
13,GGAGUGGAUACCUAUACAACCUACUACCUCA,1.25 ± 0.08
14,GGACUCGAUACUAUACAAGCUACUACCUCA,1.09 ± 0.061
15,GGAGACCAUAGUAUACUACCUACUACCUCA,0.13 ± 0.025
16,GGAGACGAUAGUAUACAACCUACUACCACA,0.78 ± 0.093
17,GGUCUGGAUACUAUACAAGCUACAACCUCA,0.536 ± 0.045
18,CCACUGGAUAGUAUACAACCUACUACCUCA,0.165 ± 0.026
19,GGAGAGGAUACUUUACAACCUACUUCCUCA,0.195 ± 0.063
20,GGAGAGGAUACUAUACAACCUACUAACCUCA,1.01 ± 0.065
